Measured values reported in the supplement of paper PMC12217912.
Some of the results follow. The full chains were built here from the parent and the listed change. Values near 0.05 are background.

B1: TEV protease; numbered along this chain (parent)
chain: MGESLFKGPRDYNPISSSICHLTNESDGHTTSLYGIGFGPFIITNKHLFRRNNGTLVVQSLHGVFKVKDTTTLQQHLVDGRDMIIIRMPKDFPPFPQKLKFREPQREERICLVTTNFQTKSMSSMVSDTSCTFPSGDGIFWKHWIQTKDGQCGSPLVSTRDGFIVGIHSASNFTNTNNYFTSVPKNFMELLTNQEAQQWVSGWRLNADSVLWGGHKVFMVKPEEPFQPVKEATQL

Variants of: B1
Test: raw area under fraction-flipped curve 0-4 h after induction (AUC4h, not background-subtracted), DNA-recorder readout of cleavage of the substrate (dimensionless); higher = more cleavage of the substrate by the protease variant
Settings: temperature: 34 °C; time window: 0-4 h after rhamnose induction
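Further: Bxb1 expression induced with 0.2% (w/v) L-rhamnose at OD600 near 0.5, cultures sampled hourly, flipped fraction per protease–substrate barcode pair counted by paired-end Illumina sequencing.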

Variant	area with substrate ENLYFQG	area with substrate ENLYFQK	area with substrate ENLYFQL	area with substrate ENLYFQS	area with substrate ENLYFQW	area with substrate ENLYFQI	area with substrate ENLYFQM	area with substrate ENLYFQN	area with substrate ENLYFQP	area with substrate ENLYFQR
MGESLFKGPRDYNPISSSICHLTNESDGHTTSLYGIGFGPFIITNKHLFRRNNGTLVVQSLHGVFKVKDTTTLNQHLVDGRDMIIIRMPKDFPPFPQKLKFREPQREERICLVTTNFQTKSMSSMVSDTSCTFPSGDGIFWKHWIQTKDGQCGSPLVSTRDGFIVGIHSASNFTNTNNYFTSVPKNFMELLTNQEAQQWVSGWRLNADSVLWGGHKVFMVKPEEPFQPVKEATQL [Q74N]	0.118	0.0744	0.0729	0.116	0.0548					
MGESLFKGPRDYNPISSSICHLTNESDGHTTSLYGIGFGPFIITNKHLFRRNNGTLVVQSLHGVFKVKDTTTLQQHLVDGRDMIIIRMPKDSPPFPQKLKFREPQREERICLVTTNFQTKSMSSMVSDTSCTFPSGDGIFWKHWIQTKDGQCGSPLVSTRDGFIVGIHSASNFTNTNNYFTSVPKNFMELLTNQEAQQWVSGWRLNADSVLWGGHKVFMVKPEEPFQPVKEATQL [F92S]	0.0734		0.0613	0.0907	0.0662	0.0612	0.0891	0.0799	0.0735	0.0547
MGESLFKGPRDYNPISSSICHLTNESDGHTTSLYGIGFGPFIITNKHLFRRNNGTLVVQSLHGVFKVKDTTTLQQHLVDGRDMIIIRMPKDFPPFPQKLKFREPQREERICLVTTNFQTKSMSSMVSDTSCTFPSGDGIFWKHWIQTKDGQCGSPLVSTRDGFIVGIHSASNFTNTNNYFTSVPKNFMELLTNQEAQQWVSGWRQNADSVLWGGHKVFMVKPEEPFQPVKEATQL [L205Q]	0.163	0.0729	0.0868	0.0833	0.0517					0.0725
MGESLFKGPRDYNPISSSICHLTNESDGHTTSLYGIGFGPFIITNKHLFRRNNGTLVVQSLHGVFKVKDTTTLQQHLVDGRDMIIIRMPKDFPPFPQKLKFREPQREERICLVTTNFQTKSMSSMVSDTSCTFPSGDEIFWKHWIQTKDGQCGSPLVSTRDGFIVGIHSASNFTNTNNYFTSVPKNFMELLTNQEAQQWVSGWRLNADSVLWGGHKVFMVKPEEPFQPVKEATQL [G138E]	0.138			0.101		0.0542	0.0847		0.0506	0.0562
MGESLFKGPRDYNPISSSICHLTNESDGHTTSLYGIGFGPFIITNKHLFRRNNGTLVVQSLHGVFKVKDTSTLQQHLVDGRDMIIIRMPKDFPPFPQKLKFREPQREERICLVTTNFQTKSMSSMVSDTSCTFPSGDGIFWKHWIQTKDGQCGSPLVSTRDGFIVGIHSASNFTNTNNYFTSVPKNFMELLTNQEAQQWVSGWRLNADSVLWGGHKVFMVKPEEPFQPVKEATQL [T71S]	0.085		0.0502	0.0934	0.0686		0.116			
MGESLFKGPRDYNPISSSICHLTNESDGHTTSLYGIGFGPFIITNKHLFRRNNGTLVVQSLHGVFKVKDTTTLQQHLVDGRDMIIIRMPKDFPPFPQKLKFREPQREERICLVTTNFQTKSMSSMVSDTSCTFPSGDGIFWKHWIQTKDGQCGSPLVSTRDGFIVGIHSASNFTNTNNYFTSVPKNFMELLTNQEAQQWVSGWRLNADSVLWGGHKVFMVKPEEPFQPVREATQL [K230R]	0.0828		0.0687	0.109	0.0632					0.0524
MGESLFTGPRDYNPISSSICHLTNESDGHTTSLYGIGFGPFIITNKHLFRRNNGTLVVQSLHGVFKVKDTTTLQQHLVDGRDMIIIRMPKDFPPFPQKLKFREPQREERICLVTTNFQTKSMSSMVSDTSCTFPSGDGIFWKHWIQTKDGQCGSPLVSTRDGFIVGIHSASNFTNTNNYFTSVPKNFMELLTNQEAQQWVSGWRLNADSVLWGGHKVFMVKPEEPFQPVKEATQL [K7T]	0.0824			0.0837				0.0763		0.0632
MGESLFKGPRDYNPISSSICHLTNESDGHTTSLYGIGFGPFIITNKHLFRRNNGTLVVQSLHGVFKVKDTTTLQQHLVDGRDMIIIRMPKDFPPFPQKLKFREPQREERICLVTTNFQTKSMSSMVSDTSCTFPSGDGIFWKHWIQTKDGQCASPLVSTRDGFIVGIHSASNFTNTNNYFTSVPKNFMELLTNQEAQQWVSGWRLNADSVLWGGHKVFMVKPEEPFQPVKEATQL [G153A]	0.0593	0.0607		0.0604	0.0263	0.0615				
MGESLFKGPRDYNPISSSICHLTNESDGHTTSLYGIGFGPFIITNKHLFRRNNGTLVVQSLHGVFKVKDTTTLQQHLVDGRDMIIIRMPKDFPPFPQKLKFREPQREERICLVTTNFQTKSMSSMVSDTSCTFPSGDGIFWKHWIQTKDGQCGSPLVSTRDGFIVGMHSASNFTNTNNYFTSVPKNFMELLTNQEAQQWVSGWRLNADSVLWGGHKVFMVKPEEPFQPVKEATQL [I167M]	0.059		0.0591	0.0895	0.0611				0.0484	0.052
MGESLFKGPRDYNPISSSICHLTNESDGHTTSLYGIGFGPFIITNKHLFRRNNGTLVAQSLHGVFKVKDTTTLQQHLVDGRDMIIIRMPKDFPPFPQKLKFREPQREERICLVTTNFQTKSMSSMVSDTSCTFPSGDGIFWKHWIQTKDGQCGSPLVSTRDGFIVGIHSASNFTNTNNYFTSVPKNFMELLTNQEAQQWVSGWRLNADSVLWGGHKVFMVKPEEPFQPVKEATQL [V58A]	0.09			0.099			0.0919			
MGESLFKGPRDYNPISSSICHLTNESDGHTTSLYGIGFGPFIITNKHLFRRNNGTLVVQSLHGVFKVKDTTTLQQHLVDGRDMIIIRMPKDFPPFPQKLKFREPQREERICLVTTNFQTKSMSSMVSDTSCTFASGDGIFWKHWIQTKDGQCGSPLVSTRDGFIVGIHSASNFTNTNNYFTSVPKNFMELLTNQEAQQWVSGWRLNADSVLWGGHKVFMVKPEEPFQPVKEATQL [P134A]	0.0915		0.0536	0.0959		0.0487				0.0583
MGESLFKGPRDYNPISSSICHLTNESDGHTTSLYGIGFGPFIITNKHLFRRNNGTLVVQSLHGVFKVKDTTTLQQHLVDGRDMIIIRMPKDFPPFPQKLKFREPQREERICLVTTNFQTKSMSSMVSDTSCTFPSGDGIFWKHWIQTKDGQCGSPLVSTRDGFIVGIHSPSNFTNTNNYFTSVPKNFMELLTNQEAQQWVSGWRLNADSVLWGGHKVFMVKPEEPFQPVKEATQL [A170P]	0.06	0.0568		0.0576		0.0507				0.0643

Same assay, conditions: temperature: 34 °C; time window: 0-4 h after rhamnose induction

Variant	area with substrate ENLYFQT	area with substrate ENLYFQY	area with substrate ENLYFQV
MGESLFKGPRDYNPISSSICHLTNESDGHTTSLYGIGFGPFIITNKHLFRRNNGTLVVQSLHGVFKVKDTTTLQQHLVDGRDMIIIRMPKDFPPFPQKLKFREPQREERICLVTTNFQTKSMSSMVSDTSCTFPSGDEIFWKHWIQTKDGQCGSPLVSTRDGFIVGIHSASNFTNTNNYFTSVPKNFMELLTNQEAQQWVSGWRLNADSVLWGGHKVFMVKPEEPFQPVKEATQL [G138E]	0.0415	0.0593	
MGESLFKGPRDYNPISSSICHLTNESDGHTTSLYGIGFGPFIITNKHLFRRNNGTLVVQSLHGVFKVKDTSTLQQHLVDGRDMIIIRMPKDFPPFPQKLKFREPQREERICLVTTNFQTKSMSSMVSDTSCTFPSGDGIFWKHWIQTKDGQCGSPLVSTRDGFIVGIHSASNFTNTNNYFTSVPKNFMELLTNQEAQQWVSGWRLNADSVLWGGHKVFMVKPEEPFQPVKEATQL [T71S]	0.0793		
MGESLFKGPRDYNPISSSICHLTNESDGHTTSLYGIGFGPFIITNKHLFRRNNGTLVVQSLHGVFKVKDTTTLQQHLVDGRDMIIIRMPKDFPPFPQKLKFREPQREERICLVTTNFQTKSMSSMVSDTSCTFPSGDGIFWKHWIQTKDGQCGSPLVSTRDGFIVGIHSASNFTNTNNYFTSVPKNFMELLTNQEAQQWVSGWRLNADSVLWGGHKVFMVKPEEPFQPVREATQL [K230R]	0.0517		
MGESLFKGPRDYNPISSSICHLTNESDGHTTSLYGIGFGPFIITNKHLFRRNNGTLVVQSLHGVFKVKDTTTLQQHLVDGRDMIIIRMPKDFPPFPQKLKFREPQREERICLVTTNFQTKSMSSMVSDTSCTFPSGDGIFWKHWIQTKDGQCASPLVSTRDGFIVGIHSASNFTNTNNYFTSVPKNFMELLTNQEAQQWVSGWRLNADSVLWGGHKVFMVKPEEPFQPVKEATQL [G153A]			0.0506
MGESLFKGPRDYNPISSSICHLTNESDGHTTSLYGIGFGPFIITNKHLFRRNNGTLVVQSLHGVFKVKDTTTLQQHLVDGRDMIIIRMPKDFPPFPQKLKFREPQREERICLVTTNFQTKSMSSMVSDTSCTFPSGDGIFWKHWIQTKDGQCGSPLVSTRDGFIVGMHSASNFTNTNNYFTSVPKNFMELLTNQEAQQWVSGWRLNADSVLWGGHKVFMVKPEEPFQPVKEATQL [I167M]	0.0708	0.0442	0.0557
MGESLFKGPRDYNPISSSICHLTNESDGHTTSLYGIGFGPFIITNKHLFRRNNGTLVAQSLHGVFKVKDTTTLQQHLVDGRDMIIIRMPKDFPPFPQKLKFREPQREERICLVTTNFQTKSMSSMVSDTSCTFPSGDGIFWKHWIQTKDGQCGSPLVSTRDGFIVGIHSASNFTNTNNYFTSVPKNFMELLTNQEAQQWVSGWRLNADSVLWGGHKVFMVKPEEPFQPVKEATQL [V58A]			0.065
MGESLFKGPRDYNPISSSICHLTNESDGHTTSLYGIGFGPFIITNKHLFRRNNGTLVVQSLHGVFKVKDTTTLQQHLVDGRDMIIIRMPKDFPPFPQKLKFREPQREERICLVTTNFQTKSMSSMVSDTSCTFASGDGIFWKHWIQTKDGQCGSPLVSTRDGFIVGIHSASNFTNTNNYFTSVPKNFMELLTNQEAQQWVSGWRLNADSVLWGGHKVFMVKPEEPFQPVKEATQL [P134A]	0.0682		0.0687
MGESLFKGPRDYNPISSSICHLTNESDGHTTSLYGIGFGPFIITNKHLFRRNNGTLVVQSLHGVFKVKDTTTLQQHLVDGRDMIIIRMPKDFPPFPQKLKFREPQREERICLVTTNFQTKSMSSMVSDTSCTFPSGDGIFWKHWIQTKDGQCGSPLVSTRDGFIVGIHSPSNFTNTNNYFTSVPKNFMELLTNQEAQQWVSGWRLNADSVLWGGHKVFMVKPEEPFQPVKEATQL [A170P]	0.0537		0.0578
